Read-outs that look alike come from different tables or passages of the source.
Tested on: Staphylococcus aureus subsp. aureus CCM 4223 (ATCC 29213)
Test: microbe, parasite or virus in culture

SMILES	MIC (24 h, read-out: MIC SA)	also measured
COC(=O)CC[C@@H](NC(=O)c1cnccn1)C(=O)OC [PC-D-Glu-diMe, dimethyl (pyrazine-2-carbonyl)-D-glutamate]	> 500 µM	–
CNC(C)C1CCC(N)C(OC2C(N)CC(N)C(OC3OCC(C)(O)C(NC)C3O)C2O)O1 (centres unmarked) [gentamicin, reference compound]	–	MIC (24 h, read-out: MIC, visual detection): 0.5 mg/L; MIC (ATCC29213|CCM4223, 24 h, read-out: MIC, spectrophotometric detection): 1 mg/L
COC(=O)C(NC(=O)c1cnccn1)c1ccccc1 [PC-D/L-Pgl-Me, methyl 2-phenyL-2-(pyrazine-2-carboxamido)acetate]	> 500 µM	–
C=C(NC(=O)c1cnccn1)C(=O)OC [PC-MeAcr, methyl 2-(pyrazine-2-carboxamido)acrylate]	> 125 µM	–
O=C(O)CNC(=O)c1cnccn1 [PC-Gly, (pyrazine-2-carbonyl)glycine]	> 500 µM	–
COC(=O)[C@H](C)NC(=O)c1cnccn1 (racemic) [PC-DL-Ala-Me, methyl (pyrazine-2-carbonyl)alaninate]	> 500 µM	–
CCOC(=O)[C@@H](NC(=O)c1cnccn1)C(C)C (racemic) [PC-DL-Val-Et, ethyl (pyrazine-2-carbonyl)valinate]	> 500 µM	–
C[C@H](NC(=O)c1cnccn1)C(=O)O [PC-L-Ala, (pyrazine-2-carbonyl)-L-alanine]	> 500 µM	–
COC(=O)[C@H](NC(=O)c1cnccn1)[C@H](C)O [PC-D-Thr-Me, methyl (pyrazine-2-carbonyl)-D-threoninate]	> 500 µM	–
COC(=O)[C@@H](NC(=O)c1cnccn1)[C@@H](C)O [PC-L-Thr-Me, methyl (pyrazine-2-carbonyl)-L-threoninate]	500 µM	–
O=C(N[C@@H](CSCc1ccccc1)C(=O)O)c1cnccn1 [PC-L-SBn-Cys, S-benzyL-N-(pyrazine-2-carbonyl)-L-cysteine]	250 µM	–
COC(=O)[C@H](NC(=O)c1cnccn1)C(C)C [PC-D-Val-Me, methyl (pyrazine-2-carbonyl)-D-valinate]	> 500 µM	–
COC(=O)[C@@H](NC(=O)c1cnccn1)[C@@H](C)OC(C)(C)C [PC-L-OtBu-Thr-Me, methyl O-(tert-butyl)-N-(pyrazine-2-carbonyl)-L-threoninate]	31.2 µM	–
COC(=O)[C@H](COCc1ccccc1)NC(=O)c1cnccn1 [PC-L-OBn-Ser-Me, methyl O-benzyl-N-(pyrazine-2-carbonyl)-L-serinate]	> 250 µM	–
COC(=O)[C@H](CO)NC(=O)c1cnccn1 [PC-L-Ser-Me, methyl (pyrazine-2-carbonyl)-L-serinate]	> 500 µM	–
CCOC(=O)C[C@H](NC(=O)c1cnccn1)C(=O)OCC [PC-L-Asp-diEt, diethyl (pyrazine-2-carbonyl)-L-aspartate]	> 500 µM	–
CCOC(=O)[C@@H](C)NC(=O)c1cnccn1 [PC-D-Ala-Et, ethyl (pyrazine-2-carbonyl)-D-alaninate]	> 500 µM	–
C[C@@H](NC(=O)c1cnccn1)C(=O)O [PC-D-Ala, (pyrazine-2-carbonyl)-D-alanine]	> 500 µM	–
COC(=O)[C@@H](CO)NC(=O)c1cnccn1 [PC-D-Ser-Me, methyl (pyrazine-2-carbonyl)-D-serinate]	250 µM	–

SMILES	MIC (24 h, read-out: MIC SA)	also measured
CCOC(=O)[C@H](Cc1ccc(O)cc1)NC(=O)c1cnccn1 [PC-L-Tyr-Et, ethyl (pyrazine-2-carbonyl)-L-tyrosinate]	> 500 µM	–
COC(=O)[C@H](CCSC)NC(=O)c1cnccn1 [PC-L-Met-Me, methyl (pyrazine-2-carbonyl)-L-methioninate]	> 500 µM	–
O=C(N[C@@H](COCc1ccccc1)C(=O)O)c1cnccn1 [PC-L-OBn-Ser, O-benzyl-N-(pyrazine-2-carbonyl)-L-serine]	> 500 µM	–
CCOC(=O)[C@@H](Cc1c[nH]c2ccccc12)NC(=O)c1cnccn1 [PC-D-Trp-Et, ethyl (pyrazine-2-carbonyl)-D-tryptophanate]	> 500 µM	–
COC(=O)[C@@H](Cc1ccc(O)cc1)NC(=O)c1cnccn1 [PC-D-Tyr-Me, methyl (pyrazine-2-carbonyl)-D-tyrosinate]	> 500 µM	–
O=C(N[C@H](CO)C(=O)O)c1cnccn1 [PC-D-Ser, (pyrazine-2-carbonyl)-D-serine]	> 500 µM	–
CCOC(=O)[C@H](Cc1c[nH]c2ccccc12)NC(=O)c1cnccn1 [PC-L-Trp-Et, ethyl (pyrazine-2-carbonyl)-L-tryptophanate]	> 500 µM	–
COC(=O)[C@@H](COC(C)(C)C)NC(=O)c1cnccn1 [PC-D-OtBu-Ser-Me, methyl O-(tert-butyl)-N-(pyrazine-2-carbonyl)-D-serinate]	> 500 µM	–
CCOC(=O)[C@H](CC(C)C)NC(=O)c1cnccn1 (racemic) [PC-DL-Leu-Et, ethyl (pyrazine-2-carbonyl)leucinate]	> 500 µM	–
CCOC(=O)[C@H](Cc1ccccc1)NC(=O)c1cnccn1 (racemic) [PC-DL-Phe-Et, ethyl (pyrazine-2-carbonyl)phenylalaninate]	> 500 µM	–
COC(=O)[C@@H](CC(C)C)NC(=O)c1cnccn1 [PC-D-Leu-Me, methyl (pyrazine-2-carbonyl)-D-leucinate]	> 500 µM	–
CCOC(=O)[C@H](C)NC(=O)c1cnccn1 [PC-L-Ala-Et, ethyl (pyrazine-2-carbonyl)-L-alaninate]	125 µM	–
CCOC(=O)CC[C@H](NC(=O)c1cnccn1)C(=O)OCC [PC-L-Glu-diEt, diethyl (pyrazine-2-carbonyl)-L-glutamate]	> 500 µM	–
COC(=O)[C@H](NC(=O)c1cnccn1)[C@H](C)OC(C)(C)C [PC-D-OtBu-Thr-Me, methyl O-(tert-butyl)-N-(pyrazine-2-carbonyl)-D-threoninate]	> 500 µM	–
COC(=O)[C@H](COC(C)(C)C)NC(=O)c1cnccn1 [PC-L-OtBu-Ser-Me, methyl O-(tert-butyl)-N-(pyrazine-2-carbonyl)-L-serinate]	> 500 µM	–
COC(=O)[C@H](CC(C)C)NC(=O)c1cnccn1 [PC-L-Leu-Me, methyl (pyrazine-2-carbonyl)-L-leucinate]	> 500 µM	–
CCOC(=O)CNC(=O)c1cnccn1 [PC-Gly-Et, ethyl (pyrazine-2-carbonyl)glycinate]	> 500 µM	–
COC(=O)[C@@H](NC(=O)c1cnccn1)C(C)C [PC-L-Val-Me, methyl (pyrazine-2-carbonyl)-L-valinate]	> 500 µM	–
